# Hit rate of the full screen: of about 340,000 compounds, about 12,000 (3.5%) were called active. The inconclusive results got no clear call from the source; some entries with a clear call stand among them for comparison. Calls come from the whole dose curve; as a rule, active = well fitted inhibition curve with a large enough effect; inconclusive = small, poorly fitted or top-dose-only effect, or another doubt; inactive = no such curve, though single readings can be large or run the other way. No potency is given beside an inconclusive call; the fits are too rough.
# Test: qHTS Assay for Inhibitors of Hepatitis C Virus (HCV)
# Details: Huh7.5.1 HCVcc-Cre (HCVcc is cell-culture hepatitis C virus) infection, luciferase reporter, 44 h; series mostly up to 41.8 µM
# Method in brief: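 Reporter virus HCVcc-Cre (~0.5 moi) infects cells exposed to compound; seeding density 1,000 cells/well with 4 h settling beforehand. Luminescence, 15 sec read, taken 44 h post-infection following a 15 min RT substrate incubation.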
# Potency is the fitted concentration of half-maximal effect; tags give direction and shape of the fitted curve.
row,Structure (SMILES),Potency
1,CCc1cc2ccccc2nc1SCC(=O)Nc1cc(OC)c(OC)cc1C(=O)O,inactive
2,c1ccc(CN2C3=NCCCN3c3ccccc32)cc1,"inconclusive [inhibitor, partial curve]"
3,COc1ccc2nc(-c3ccccc3)[nH]c2c1,inactive
4,COCCn1c(=O)[nH]c2cc(C(=O)N3CCN(c4ccc(OC)cc4)CC3)ccc2c1=O,"inconclusive [inhibitor, full curve]"
5,CCCN(CC1CC1)CC(O)c1ccccc1 (stereo unspecified),inactive
6,COC(=O)Nc1ccc(S(=O)(=O)N2CCCCCC2)cc1,"inconclusive [inhibitor, single point]"
7,Cc1ccc(C(C)CCN2CCC(n3nccc3NC(=O)c3ccccc3)CC2)o1 (stereo unspecified),"inconclusive [inhibitor, partial curve]"
8,CCCn1nc(NC(=O)c2cccs2)c2cc3cc(C)ccc3nc21,active: 22.4 µM
9,Cc1sc2nc(CN3CCC(C)CC3)nc(Cl)c2c1C,"inconclusive [inhibitor, single point]"
10,CC(Oc1ccc(Br)cc1)C(=O)Nc1cc(Cl)ccc1N1CCN(C)CC1 (stereo unspecified),"inconclusive [inhibitor, single point]"
11,O=C(O)c1cccc(N2C(=O)c3cc4cccc(Br)c4cc3C2=O)c1,inactive
12,C=CCNC(=O)/C(C#N)=C\c1cc(Cl)c(OCC)c(OC)c1,inactive
13,OC(CC1CC12c1ccccc1-c1ncccc12)(c1ccccc1)c1ccccc1 (stereo unspecified),"inconclusive [inhibitor, single point]"
14,CC(=O)c1c(C)[nH]c(C(=O)COc2ccc3ccc(=O)oc3c2)c1C,active: 8.91 µM
15,C=CCOC(=O)C1=C(C)NC(C)=C(C(=O)OCC=C)C1c1cn(-c2ccccc2)nc1-c1ccco1,inactive
16,Oc1ccccc1-c1nnc(-c2ccc(C(F)(F)F)cc2)o1,"inconclusive [inhibitor, single point]"
17,COC(=O)Cn1c(CN2CCc3ccccc3C2)nc2c1c(=O)n(C)c(=O)n2C,inactive
18,CCCc1c(C(=O)Nc2cc(C(C)(C)C)on2)cnn1-c1ccccc1,"inconclusive [inhibitor, partial curve]"
19,O=C(O)c1ccccc1Nc1cc(Cl)c2nonc2c1[N+](=O)[O-],inactive
20,CS(=O)(=O)c1nc(-c2ccccc2)cc(C(F)(F)F)n1,active: 10 µM
21,O=C(CSCc1c(Cl)cccc1Cl)Nc1ccc2c(c1)OCO2,inactive
22,CC1CCC(C(C)C)C(OP(=O)(c2ccccc2)C(O)c2ccncc2)C1 (stereo unspecified),inactive
23,COc1ccc(C2C(C#N)=C(/N=C/N3CCOCC3)OC3=C2C(=O)CC(C)(C)C3)cc1OC (stereo unspecified),"inconclusive [inhibitor, partial curve]"

row,Structure (SMILES),Potency
1,Cc1ccc(C(=O)Nc2ccc(C(=O)N3CCCCC3)cc2)cc1,inactive
2,CCC(=O)c1cc(F)ccc1OCC(=O)N1CCN(c2ccc(F)cc2)CC1,"inconclusive [inhibitor, partial curve]"
3,COc1ccc(C)cc1NC(=O)c1cc2ccccc2cc1OCC(=O)NCc1ccco1,"inconclusive [inhibitor, partial curve]"
4,CCOc1ccccc1NC(=O)Nc1ccncc1,"inconclusive [inhibitor, single point]"
5,C=CCn1cc(C(=O)N2CCN(CC)CC2)c(=O)c2cc(S(=O)(=O)N(CC)CC)ccc21,"inconclusive [inhibitor, single point]"
6,CCOC(=O)c1c(C)[nH]c(C(=O)C(C)Sc2ccc(Cl)cc2)c1C (stereo unspecified),"inconclusive [inhibitor, single point]"
7,COc1ccc(CN2CCN(C(=O)c3ccc(-c4ccccc4)cc3)CC2)c(OC)c1OC,"inconclusive [inhibitor, partial curve]"
8,N#C/C(=C\C1CC2C=CC1C2)c1nc2ccccc2[nH]1 (stereo unspecified),"inconclusive [inhibitor, partial curve]"
9,O=C(NCC1CCN(Cc2cccc(Cl)c2)CC1)Nc1ccccc1Cl,"inconclusive [inhibitor, single point]"
10,Cc1cc(C)nc(N2CCN(c3nc(-c4ccccc4)nc4c3oc3ccccc34)CC2)n1,inactive
11,Cc1ccccc1NC(=S)N=Nc1c(O)n(C)c2ccc(S(=O)(=O)N3CCOCC3)cc12,"inconclusive [inhibitor, partial curve, poor fit]"
12,COC(=O)C1=CN(Cc2ccc(C)cc2)C=C(C(=O)OC)C1c1cc(OC)c(OC)c(OC)c1,"inconclusive [inhibitor, partial curve]"
13,O=C(Nc1ccc(NC(=O)c2cccs2)c(Cl)c1)c1ccco1,"inconclusive [inhibitor, single point]"
14,CC1CCC(=C(C#N)c2nc(-c3cc4ccccc4oc3=O)cs2)CC1 (stereo unspecified),"inconclusive [inhibitor, single point]"
15,COc1ccc(OCC(=O)O/N=C(\N)Cc2ccc(Cl)cc2Cl)cc1,"inconclusive [inhibitor, single point]"
16,Cc1ccc(S(=O)(=O)N2CCCCC2)cc1NC(=O)COC(=O)c1cccn1C,active: 12.6 µM
17,NC(=O)CSc1nc2cc(Cl)ccc2c(=O)n1C1CCCCC1,active: 11.2 µM
18,CC1C(=O)N2CCCc3cc(NC(=O)COc4ccc(Cl)cc4)cc1c32 (stereo unspecified),"inconclusive [inhibitor, single point]"
19,Cc1cc(NC(=O)c2cc(-c3cccs3)nc3ccccc23)no1,"inconclusive [inhibitor, partial curve]"
20,CC(C)CN(C(=O)COC(=O)C12CC3CC(CC(Cl)(C3)C1)C2)c1c(N)n(Cc2ccccc2)c(=O)[nH]c1=O,inactive
21,Cc1ccc(OCc2cc(C(=O)N3CCc4sccc4C3)no2)cc1C,inactive
22,O=C(Nc1ccc(NC(=O)c2ccccc2)nc1)c1ccncc1,inactive
23,Cc1ccc(S(=O)(=O)N2CCN(C(=O)c3cc(C4CC4)nc4c3cnn4C(C)C)CC2)cc1,"inconclusive [inhibitor, single point]"

# Source: PubChem BioAssay AID651820 (National Center for Advancing Translational Sciences (NCATS), 2012)
